Measurements from the supplement of paper PMC4967469.

What was measured:
Assay in all cases: Viability of human cancer cell lines after 72 h of drug (GDSC screen)
XMD13-2 = compound: O=C(NC1CC1)c1cccc(-c2ccc3c(NC(=O)C4CC4)n[nH]c3c2)c1 [XMD13-2]; settings: top dose 10.24 µM; top dose inferred
Description: (§1)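 Human cancer cell lines in 384-well plates, medium with 10% serum, drug for 72 h over a 256-fold dose range (nine 2-fold or five 4-fold steps up to the top dose). Adherent lines were fixed and stained with the nucleic acid dye Syto60, suspension lines read with resazurin; signal relative to control wells, capped at 0 and 100%. One two-parameter sigmoid per drug and line, fitted in a mixed model over all curves with the slope shared within a line.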

PF-562271 = compound: CN(c1ncccc1CNc1nc(Nc2ccc3c(c2)CC(=O)N3)ncc1C(F)(F)F)S(C)(=O)=O [PF-562271]; settings: top dose 2.56 µM; top dose inferred
Description: as §1

SNX-2112 = compound: CC1(C)CC(=O)c2c(C(F)(F)F)nn(-c3ccc(C(N)=O)c(N[C@H]4CC[C@H](O)CC4)c3)c2C1 [SNX-2112]; settings: top dose 2.56 µM
Description: as §1

Vinblastine = compound: CC[C@]1(O)C[C@@H]2CN(CCc3c([nH]c4ccccc34)[C@@](C(=O)OC)(c3cc4c(cc3OC)N(C)[C@H]3[C@@](O)(C(=O)OC)[C@H](OC(C)=O)[C@]5(CC)C=CCN6CC[C@]43[C@@H]65)C2)C1 [Vinblastine]; settings: top dose 0.1 µM; top dose inferred
Description: as §1

Afatinib = compound: CN(C)C/C=C/C(=O)Nc1cc2c(Nc3ccc(F)c(Cl)c3)ncnc2cc1O[C@H]1CCOC1 [Afatinib]
Description: as §1

[1] = top dose 0.5 µM, screen: GDSC drug entry 1032
[2] = top dose 10 µM, screen: GDSC drug entry 1377, top dose inferred

Row | Cell Line | AUC (XMD13-2) | IC50 (XMD13-2) [nM] | AUC (PF-562271) | IC50 (PF-562271) [nM] | AUC (SNX-2112) | IC50 (SNX-2112) [nM] | AUC (Vinblastine) | IC50 (Vinblastine) [nM] | AUC (Afatinib; [1]) | IC50 (Afatinib; [1]) [nM] | AUC (Afatinib; [2]) | IC50 (Afatinib; [2]) [nM]
1 | MZ2-MEL (melanoma, adherent) | 0.889 | > 10200 | 0.899 | > 2560 | 0.414 | 89.4 | 0.562 | 9.49 | 0.983 | > 500 | 0.93 | > 10000
2 | CAL-27 (head and neck, adherent) | 0.81 | 5530 | 0.938 | > 2560 | 0.445 | 113 | 0.34 | 2.22 | 0.547 | 42.1 | 0.254 | 121
3 | ACHN (kidney, adherent) | 0.946 | > 10200 | 0.892 | > 2560 | 0.862 | > 2560 | 0.775 | 45.1 | 0.737 | 166 | 0.379 | 277
4 | COLO-800 (melanoma, adherent) | 0.82 | 5650 | 0.988 | > 2560 | 0.87 | 2270 | 0.475 | 5.37 | 0.946 | > 500 | 0.945 | > 10000
5 | KON (head and neck, adherent) | 0.98 | > 10200 | 0.82 | 1430 | 0.968 | > 2560 | 0.487 | 5.77 | 0.925 | > 500 | 0.906 | > 10000
6 | NCI-H1417 (small cell lung carcinoma, suspension) | 0.882 | > 10200 | 0.942 | > 2560 | 0.632 | 397 | 0.53 | 7.66 | 0.973 | > 500 | 0.951 | > 10000
7 | MIA-PaCa-2 (pancreas, adherent) | 0.954 | > 10200 | 0.909 | > 2560 | 0.952 | > 2560 | 0.464 | 4.93 | 0.983 | > 500 | 0.983 | > 10000
8 | DB (B-cell lymphoma, suspension) | 0.938 | > 10200 | 0.962 | > 2560 | 0.475 | 136 | 0.335 | 2.04 | 0.928 | > 500 | 0.845 | 8620
9 | OAW-42 (ovary, adherent) | 0.976 | > 10200 | 0.971 | > 2560 | 0.895 | > 2560 | 0.934 | > 100 | 0.945 | > 500 | 0.932 | > 10000
10 | HN (head and neck, adherent) | 0.988 | > 10200 | 0.984 | > 2560 | 0.884 | 2480 | 0.483 | 5.63 | 0.717 | 123 | 0.505 | 643
11 | LC-1-sq (lung squamous cell carcinoma, adherent) | 0.923 | > 10200 | 0.984 | > 2560 | 0.955 | > 2560 | 0.499 | 6.2 | 0.883 | > 500 | 0.918 | > 10000

The IC50 comes from the fitted curve, where viability falls to half of the control; a limit (>, <) means that the fit lies beyond the doses tested. AUC sums up the same curve from the lowest dose to the 256-fold higher top dose; it is 1 without any effect and falls as sensitivity rises. For part of these data: An inferred top dose was derived from the fitted curves, not read from the paper. For part of these data: An entry number marks a drug with two screens in the source, which often give different values.
